# Experimental data reported in ChEMBL document CHEMBL4888484, “Replenishing the malaria drug discovery pipeline: Screening and hit evaluation of the MMV Hit Generation Library 1 (HGL1) against asexual blood stage Plasmodium falciparum ,using a nano luciferase reporter read-out” (2022).
# The campaign covered roughly 150,000 compounds. About 540 (0.36%) showed an effect of 50% or more. Some of the results follow.
# Tested on: Plasmodium falciparum
# Assay: Primary screen in NF54 nanoGlo assay, in single point, at 2uM, 72h; a lower Z score goes with more inhibition
# Format: functional, Erythrocyte
# Conditions: timepoint 72 hour
Structure (SMILES),% Inhibition [%],Z score
Cc1n[nH]c(C)c1CNCC(=O)NCc1ccco1,-3,0.58
Cc1nn(Cc2ccccc2)c(Cl)c1CN1CCC[C@H]1C(=O)O,-2,0.26
CCc1cc(C(=O)Nc2cccc(F)c2)c2c(C3CC3)nn(-c3ccccc3)c2n1,30,-3.37
Cc1ccc(NC(=O)Cn2cnc3nc(N4CCCC4)sc3c2=O)cc1Cl,-10,1.64
O=C(CNc1ccc(Cl)cc1F)NC[C@H]1CCS(=O)(=O)C1,-2,0.25
O=C(Cn1nc(N2CCCCCC2)c2ccccc2c1=O)Nc1ccc2c(c1)OCCO2,-12,1.79
O=C(NCC(F)F)Nc1ccncc1F,-1,0.13
CCNC(=O)N(Cc1ccc(OC)c(OS(=O)(=O)c2ccc(F)cc2)c1)Cc1ccco1,-21,3.03
CC1CC(N(C)CCn2cccn2)CCN1Cc1ccccc1 (stereo not drawn),-2,0.21
CCOC1CC(CO)(NCc2ccc(C)o2)C1(C)C (stereo not drawn),-11,1.26
Cc1noc(-c2ccc3c(c2)OCO3)c1C(=O)NCCC(c1ccccc1)c1ccccc1,-8,0.81
COc1ccc(C(=O)Nc2cnn(CC(=O)N3CCOC(C)(C)C3)c2)nc1,-13,1.58
Cc1noc2ncnc(N[C@@H](Cc3ccccn3)c3ccccc3)c12,-1,0.12
CC(CNC(=O)C(=O)NC(C)CCc1ccccc1)Cc1ccccc1 (stereo not drawn),-11,1.26
Cc1cc(C)c(CN[C@@H]2c3ccccc3C[C@@H]2O)c(C)c1,2,-0.21
CC1CCN(Cc2ccc(C(=O)N[C@H]3CC(=O)N(C)C3)o2)CC1,14,-1.89
COc1ccc(NC(=O)CN2CCN(c3ccccc3F)C2=O)cc1Cl,1,-0.08
CC(C)(OCC(=O)N1Cc2ccc(O)cc2C2(CC2)C1)C(F)(F)F,-2,0.22
CCN(CC)CC1(n2cnc3cc(C)ccc3c2=O)CC1,7,-1.38
CC1CCCCC1CN1CCC(C#N)CC1 (stereo not drawn),-3,0.48
Cc1nnc2ccc(N3CCCCCCC3)nn12,6,-0.66
COc1ccc(-c2cn3c4ccccc4nc3n2CCCN2CCCC2)cc1,-1,0.14
CC(=O)N[C@@H]1CC[C@H]2CCOc3ccccc3C(=O)N3CCN(C4CCC(C)CC4)C[C@H]3C(=O)NC[C@H]1O2 (stereo partly drawn),7,-0.83
CNS(=O)(=O)[C@H]1CCCN(Cc2cccc3nsnc23)C1,-14,1.53
Cc1ccn(CCCNS(=O)(=O)c2c(Cl)ccc3nsnc23)n1,-10,1.47
CCN(Cc1cncn1C)c1ccccc1C,7,-1.27
COc1ccccc1CNc1nc(-c2c[nH]c3ccccc23)nc2c1CNC2,2,-0.29

Structure (SMILES),% Inhibition [%],Z score
NC(=O)C[C@H]1COCCN1C(=O)c1scc2c1OCCO2,-8,1.13
CNC(=O)CN(CCc1ccc(C(C)(C)C)cc1)CC(=O)NC,-12,1.25
CCNC(=O)c1nsc(C(=O)N2CCN(c3ccccn3)CC2)c1N,-10,1.26
COc1ccc(-c2nnc(NC(=O)[C@H](C)NC(=O)Nc3ccccc3F)s2)cc1,-4,0.45
Cc1cc(C)c(-c2cc(C(=O)NCCC(=O)N3CCN(C)CC3)no2)c(C)c1,-8,1.28
Cc1onc(NC(=O)NC[C@@H]2CCCC[C@H]2O)c1C,-21,4.14
O=C(c1ncc(F)cc1F)N1CCC(Nc2nccs2)CC1,-44,5.11
O=C(NC[C@H]1CC12CC2)N1CCC=C(F)C1,-3,0.65
Cc1nn(C)c(C)c1-c1ccnc2cc(C(=O)Nc3sc4c(c3C#N)CC[C@H](C(C)(C)C)C4)nn12,0,-0.05
CN(Cc1cnc(NC[C@H]2CCCO2)nc1)Cc1cccc2cnccc12,-7,0.99
Cn1c(CNC(=O)N2CCC(C)(C)[C@@H](c3ccccc3)C2)n[nH]c1=O,1,-0.12
CCOC(=O)c1nnn(-c2nc(N3CCCC3)nc(N(c3ccccc3)c3ccccc3)n2)c1C,-17,2.24
Cc1c(CN[C@H]2CC(C)(C)OC2(C)C)cnn1C,1,-0.08
Cn1c([C@H](Cc2ccccc2)NC(=O)c2ccccn2)nc2ccccc21,-1,0.12
COc1ccc(-c2nc(C)nc3c2CCC3)c(OC)c1,-12,1.74
CO[C@H]1C[C@@H](O)C12CCN(C(=O)c1cc(C3CC3)n[nH]1)CC2,-1,0.13
CCOc1cc(-n2cnnn2)c(OCC)cc1NC(=O)c1cn(-c2ccc(OC)cc2)nn1,-2,0.18
CC[C@H]1CCCCN1Cc1cccc2c1OCCO2,3,-0.39
Cn1cnc2c1CCN(C(=O)c1cn(C(C)(C)C)nn1)C21CCOCC1,-5,0.86
Cc1ccc2[nH]c(CCNC(=O)[C@@H]3CCCN3c3nnc(N4CCCC4=O)s3)nc2c1,-4,0.82
CCc1nn(C)cc1CN[C@H](C)C(=O)OC,-5,0.61
CC(C(=O)N(C)C)S(=O)(=O)N1CC(O)C(C)(C)C1 (stereo not drawn),-8,1.15
C[C@H]1CCn2c(nc3cc(C(=O)NC4CCCCCCC4)ccc32)C1,-8,1.33
Cc1ccccc1Cn1cccc1CNS(=O)(=O)c1ccc(Cl)s1,-3,0.25
CC(Cc1ccccc1F)NC(=O)[C@H]1CCCCN1 (stereo partly drawn),-11,1.07
CN(C)C[C@@H]1COCCN(Cc2cccn2-c2ccc(Cl)cn2)C1,-10,1.93
CC(=O)N[C@H]1CCN(Cc2cn(C)nc2-c2ccc3c(c2)OCCO3)C1,-1,0.25
